# Where “and” joins values, the source holds several entries; their conditions need not be identical. Equal values may be shown once. The campaign covered roughly 350,000 compounds. About 31,000 (8.9%) were called active. This list was built around the results that the source calls inconclusive (neither active nor inactive); the mix of calls is not that of the screen. The call rests on the fitted dose curve; in most records, active means well fitted inhibition curve with a large enough effect; inconclusive means small, poorly fitted or top-dose-only effect; inactive means no such curve, though single readings can be large or run the other way. Where the call is inconclusive, the potency comes from a doubtful curve fit.
# Target: Histone-lysine N-methyltransferase EHMT2 (Homo sapiens) (UniProt Q96KQ7)
# Assay: qHTS Assay for Inhibitors of Histone Lysine Methyltransferase G9a; further: nearly all actives have a fitted effect of over 75% in size
# Details: G9a H3K9 monomethylation, AlphaScreen, 2 h; activity, negative = inhibition: at 59 µM (top of the series) unless noted
# Procedure, shortened: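 Methyltransferase reactions run at room temperature for 2 h (20 nM enzyme, 500 nM biotin-H3K9 peptide, 20 uM SAM) after a 15 min compound preincubation; product detected by AlphaScreen beads and anti-H3K9me1 antibody.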
# On the % scale 0 is the no-effect control and ±100 the full control effect; potency means the concentration at half of the fitted maximal effect; tags describe the fitted curve by direction and shape.
# Chain of UniProt Q96KQ7 (Q96KQ7 whole entry, looked up): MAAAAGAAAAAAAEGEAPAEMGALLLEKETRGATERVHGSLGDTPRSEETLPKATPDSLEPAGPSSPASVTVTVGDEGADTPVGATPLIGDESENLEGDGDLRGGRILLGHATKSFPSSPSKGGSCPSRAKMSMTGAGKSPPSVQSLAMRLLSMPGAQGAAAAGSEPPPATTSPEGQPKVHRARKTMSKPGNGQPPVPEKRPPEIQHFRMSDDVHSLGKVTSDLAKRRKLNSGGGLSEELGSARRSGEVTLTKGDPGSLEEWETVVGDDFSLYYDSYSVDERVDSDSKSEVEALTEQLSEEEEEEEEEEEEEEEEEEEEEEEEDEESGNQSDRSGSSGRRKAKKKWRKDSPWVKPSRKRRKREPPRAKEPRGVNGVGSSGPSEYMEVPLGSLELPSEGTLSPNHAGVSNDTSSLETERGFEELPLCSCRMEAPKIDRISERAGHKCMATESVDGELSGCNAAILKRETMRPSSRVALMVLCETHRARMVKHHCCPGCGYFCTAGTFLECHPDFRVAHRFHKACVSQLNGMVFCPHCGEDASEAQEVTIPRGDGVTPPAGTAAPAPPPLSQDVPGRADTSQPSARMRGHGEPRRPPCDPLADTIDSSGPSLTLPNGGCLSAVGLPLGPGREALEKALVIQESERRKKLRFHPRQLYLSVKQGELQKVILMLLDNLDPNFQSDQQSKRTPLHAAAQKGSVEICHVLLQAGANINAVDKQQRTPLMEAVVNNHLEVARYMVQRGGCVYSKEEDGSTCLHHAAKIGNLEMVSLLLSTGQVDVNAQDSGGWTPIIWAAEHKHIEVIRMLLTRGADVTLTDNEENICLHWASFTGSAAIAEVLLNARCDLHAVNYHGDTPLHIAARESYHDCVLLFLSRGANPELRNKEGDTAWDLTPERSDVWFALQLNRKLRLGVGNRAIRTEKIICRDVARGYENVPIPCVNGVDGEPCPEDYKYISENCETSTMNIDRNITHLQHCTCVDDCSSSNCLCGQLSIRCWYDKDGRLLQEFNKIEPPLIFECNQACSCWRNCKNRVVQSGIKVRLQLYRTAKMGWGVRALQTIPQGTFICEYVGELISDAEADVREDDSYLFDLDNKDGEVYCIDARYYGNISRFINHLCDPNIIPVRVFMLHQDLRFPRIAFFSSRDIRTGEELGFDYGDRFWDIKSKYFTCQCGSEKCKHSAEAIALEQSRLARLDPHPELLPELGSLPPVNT
SMILES,Potency,"activity, negative = inhibition"
c1cc(-c2cn(C[C@H]3CC[C@@H]([C@@H]4CC[C@H](Cn5cc(-c6ccsc6)nn5)O4)O3)nn2)cs1,"inconclusive: 89.1 µM [inhibitor, partial curve, poor fit]",
CCN(CC)CCn1c(NCc2ccccn2)nc2ccccc21,"inconclusive: 14.1 µM [inhibitor, partial curve, poor fit]",
CCc1ccc(CC(=S)N2CCOCC2)cc1,,inactive: 3.9% [at 102 µM]
C[C@H](NC(=O)c1nc[nH]c1C(=O)NCCCCCN)C(=O)OC(C)(C)C,,inactive: 22.6% [at 2.33 µM]
COc1ccc2oc(=O)cc(CN3CCN(C(=O)c4ccccc4Br)CC3)c2c1,"inconclusive: 22.4 µM [inhibitor, single point]",
CC1CCN(c2nn3c(=O)c(C(=O)NCCc4ccc(Cl)cc4)cnc3s2)CC1,,inactive: 0.0169%
COc1cc(OC)c(C(=O)CCCN2CCCC2)c(OC)c1,"inconclusive: 316 nM [inhibitor, full curve, poor fit] and inconclusive: 89.1 µM [inhibitor, single point]",
CCOc1cc(CN2CCN(c3cccc(C(F)(F)F)c3)CC2)ccc1O,"inconclusive: 0.708 µM [inhibitor, full curve, poor fit]",
CCn1c2ccccc2c2cc(NC(=O)c3coc(=O)c(Br)c3)ccc21,active: 7.08 µM,
CCCC(=O)Nc1ccc(NC(=S)NC(=O)c2cccs2)cc1,active: 31.6 µM,
CC1(C)CCc2cc(-c3ccnc(=S)[nH]3)ccc2O1,"inconclusive: 39.8 µM [inhibitor, partial curve, poor fit]",
CCCc1[nH]nc2c1C(c1ccc(OCCN3CCOCC3)c(OC)c1)C(C#N)=C(N)O2 (configuration not stated),"inconclusive: 89.1 µM [inhibitor, single point]",
COCCCN1C(=O)c2[nH]nc(-c3ccccc3O)c2C1c1ccc(OC)cc1 (configuration not stated),,inactive: 12.7%
O=C(COC(=O)CCS(=O)(=O)c1ccccc1)Nc1ccccc1,"inconclusive: 17.8 µM [inhibitor, single point]",
Cc1ccccc1/C=C1\Sc2ccc(C(=O)N3CCN(c4ccccn4)CC3)cc2N(C)C1=O,"inconclusive: 22.4 µM [inhibitor, full curve]",
O=C(Cn1c(=O)oc2ccccc21)NCCc1ccccc1Cl,,inactive: 7.66% [at 102 µM]
Cc1ccc(OCC(O)CN2CCOCC2)c(C)c1 (configuration not stated),active: 89.1 µM,
Cc1cc(NC(=O)C(C)SCC(=O)OC(C)C(=O)Nc2ccc(F)cc2Cl)no1 (configuration not stated),"inconclusive: 89.1 µM [inhibitor, partial curve, poor fit]",
CC(C)c1ccc(NC(=O)c2cc(S(=O)(=O)NC3CCCCC3)ccc2F)cc1,,inactive: 5.29%
C#Cc1ccc(CN2CCN(CCc3ccccc3)C(CCO)C2)cc1 (configuration not stated),"inconclusive: 89.1 µM [inhibitor, single point]",
CCOCCn1c(=O)c2c(nc3n2CC(C)CN3CCc2ccccc2)n(C)c1=O (configuration not stated),"inconclusive: 7.94 µM [inhibitor, partial curve, poor fit]",

SMILES,Potency,"activity, negative = inhibition"
COc1ccc(-c2cc(C(=O)N3CCN(c4ccccc4O)CC3)c3ccccc3n2)cc1OC,"inconclusive: 89.1 µM [inhibitor, single point]",
Cc1ccc(C2(c3ccccc3)NC(=O)N(CC(=O)NCc3ccco3)C2=O)cc1C (configuration not stated),"inconclusive: 22.4 µM [inhibitor, single point]",
CCOC(=O)c1c(C)[nH]c(C)c1S(=O)(=O)N1CCCC(C(=O)Nc2ccc(OC)c(OC)c2)C1 (configuration not stated),,inactive: -21.3%
Cc1cccc(Cn2c(SCc3ccc(C(=O)NCc4cccs4)cc3)nc3cccnc32)c1,"inconclusive: 8.91 µM [inhibitor, partial curve, poor fit]",
C/C(=N\O)c1ccc2c3c([nH]c2c1)CCCC3,,inconclusive: -62.6% [inhibitor]
Cc1ccc(C)c2[nH]c(=O)c(CN(CCN3CCOCC3)Cc3nnnn3CC3CCCO3)cc12 (configuration not stated),"inconclusive: 39.8 µM [inhibitor, single point]",
O=C1NCCn2nc3ccccc3c21,,inactive: 16.4% [at 2.33 µM]
O=C1CC(N2CCN(S(=O)(=O)c3ccccc3F)CC2)C(=O)N1c1ccccc1Cl (configuration not stated),,inactive: -0.754% [at 12.7 µM]
O=C(NC1CCC(O)CC1)c1cc(-c2ccco2)nc2ccccc12 (configuration not stated),active: 39.8 µM,
Cc1ccc2[nH]c(CSc3nnc(C)s3)cc(=O)c2c1,"inconclusive: 5.01 µM [inhibitor, single point]",
COc1ccccc1-n1c(-c2ccccc2)c[nH]c1=S,active: 0.891 µM,
COC(=O)c1sc(NC(=O)c2c(-c3ccccc3)noc2C)nc1C,"inconclusive: 1.58 µM [inhibitor, partial curve, poor fit]",
COC(=O)c1ccccc1NC(=O)CN(c1ccc(Cl)cc1)S(=O)(=O)c1ccc(OC)cc1,"inconclusive: 0.501 µM [inhibitor, full curve, poor fit]",
Cc1cc(N=Nc2c(O)c3ccccc3[nH]c2=O)ccc1N=Nc1ccc(C(=O)N(C)C)cc1,active: 79.4 µM,
O=C(O)c1cc(N/N=C/c2cccc3ccccc23)ccc1Cl,"inconclusive: 89.1 µM [inhibitor, single point]",
COc1ccc(N2CCN(c3ncnc4onc(C)c34)CC2)cc1,"inconclusive: 14.1 µM [inhibitor, partial curve]",
N#CC(c1ccc(Cl)cc1)c1c(Cl)cc(-n2ncc(=O)[nH]c2=O)cc1Cl (configuration not stated),"inconclusive: 3.55 µM [inhibitor, partial curve, poor fit]",
Cc1cccc(N2CCN(C(=O)C3CCCN(C(=O)c4cc5sccc5n4C)C3)CC2)c1C (configuration not stated),"inconclusive: 25.1 µM [inhibitor, partial curve, poor fit]",
O=C(c1cccc(NS(=O)(=O)c2cccc(C(F)(F)F)c2)c1)N1CCOCC1,,inactive: -18.2% [at 102 µM]
CCn1c(SCC(=O)c2c[nH]c3ccccc23)nnc1-c1cccs1,"inconclusive: 20 µM [inhibitor, partial curve, poor fit]",
O=c1ccc2ccc(O)c(O)c2o1,active: 891 nM and active: 844 nM,

# From PubChem BioAssay AID504332 (National Center for Advancing Translational Sciences (NCATS), 2011)
